According to PubChem BioAssay AID1963851 (Molecular Pharmacology Branch, DTP, NCI, 2024):
A number of entries come with more than one value. This is not the full list of results. There may be further records. Values given together repeat one measurement (runs, samples, wells, individuals or studies). Brackets with × say how often a value occurs here. A date in brackets names the month of the test.

Test system: 188146-221-R-J1-PDC complex spheroid viability
Test: Anticancer human tumor 188146-221-R-J1-PDC patient-derived colon adenocarcinoma cell line growth inhibition [POLQ]
Settings: stronger effect = lower value
Experimental: Multicellular complex tumor spheroid response to Polymerase (POL) inhibitors (novobiocin, ART-558, RP6685) in combination with a variety of drugs and investigational agents in selected tumor cell lines
The POL inhibitors (novobiocin, ART-558, and RP6685) were evaluated both individually and in combination with standard of care and investigational anticancer small molecules within a complex spheroid model of solid tumors. . Complex spheroids include a stromal component modeled by human endothelial cells (HUVEC) and fibroblasts modeled by human mesenchymal stem cells (MSCs). The concentration ranges selected for each drug and investigational agent were based upon clinically achievable concentrations if the clinical Cmax of the agent was known.
Compounds. […] If the clinical Cmax for an agent had not been determined, the highest concentration tested was 10 microM, except for SN-38, which was tested at a high concentration of 1 microM. […]
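Further: spheroids exposed to compounds for seven days; 100% = DMSO vehicle control viability.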

Q: With `COC1C(OC(N)=O)C(O)C(Oc2ccc3c(O)c(NC(=O)c4ccc(O)c(CC=C(C)C)c4)c(=O)oc3c2C)OC1(C)C` (configuration not stated) as the molecule, how does the viability, T/C (compound alone 0.1 µM) read?
A: The viability, T/C was 90.3, 107, 103 (2×), 102, 101 (3×), 118, 97.3, 104, 98.2% (2×).

Q: With `Cc1cccc(N(C)C(=O)C2C(O)CCN2c2nc(C)cc(C(F)(F)F)c2C#N)c1` (configuration not stated) as the molecule, how does the viability, T/C (compound alone 0.0316 µM) read?
A: Its viability, T/C is 101 (2×), 102, 98.7, 100, 96.6, 107, 109% [2023-10] and 101, 91.1, 81.1, 96.1, 106% [2023-11].
